Binding signal data for 20 molecules are collected here from publication PMC9911399, “Two distinct binding modes provide the RNA-binding protein RbFox with extraordinary sequence specificity”.

The chains are these.
T1: RBFOX1 RRM (Homo sapiens, UniProt Q9NWB1 109-208)
T1 sequence: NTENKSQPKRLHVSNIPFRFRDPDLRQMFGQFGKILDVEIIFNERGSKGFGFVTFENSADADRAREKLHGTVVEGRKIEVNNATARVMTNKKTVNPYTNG

B1: UUGGCCC (DNA:RNA)
RNA: GGGAGACCGGAAUUCAGAUUGUCCUUGGCCCUUAAAUCCCGUCGUAGCCACCA
DNA 1: CAATCTGAATTCCGGTCTCCC
DNA 2: TGGTGGCTACGACGGGATT
B2: UACAUCG (DNA:RNA)
RNA: B1 RNA with U26A, G27C, G28A, C29U, C31G
DNA 1: CAATCTGAATTCCGGTCTCCC
DNA 2: TGGTGGCTACGACGGGATT
B3: CAUCAAU (DNA:RNA)
RNA: GGGAGACCGGAAUUCAGAUUGUCCCAUCAAUUUAAAUCCCGUCGUAGCCACCA
DNA 1: CAATCTGAATTCCGGTCTCCC
DNA 2: TGGTGGCTACGACGGGATT
B4: AGCCAAA (DNA:RNA)
RNA: B3 RNA with C25A, A26G, U27C, U31A
DNA 1: CAATCTGAATTCCGGTCTCCC
DNA 2: TGGTGGCTACGACGGGATT
B5: UGCAUUU (DNA:RNA)
RNA: B3 RNA with C25U, A26G, U27C, C28A, A29U, A30U
DNA 1: CAATCTGAATTCCGGTCTCCC
DNA 2: TGGTGGCTACGACGGGATT
B6: CAGUGUA (DNA:RNA)
RNA: B3 RNA with U27G, C28U, A29G, A30U, U31A
DNA 1: CAATCTGAATTCCGGTCTCCC
DNA 2: TGGTGGCTACGACGGGATT
B7: GCAGCGC (DNA:RNA)
RNA: B1 RNA with U25G, U26C, G27A, C30G
DNA 1: CAATCTGAATTCCGGTCTCCC
DNA 2: TGGTGGCTACGACGGGATT
B8: GUUUCGC (DNA:RNA)
RNA: B1 RNA with U25G, G27U, G28U, C30G
DNA 1: CAATCTGAATTCCGGTCTCCC
DNA 2: TGGTGGCTACGACGGGATT
B9: UUGCACG (DNA:RNA)
RNA: B1 RNA with G28C, C29A, C31G
DNA 1: CAATCTGAATTCCGGTCTCCC
DNA 2: TGGTGGCTACGACGGGATT
B10: GAAUGCC (DNA:RNA)
RNA: B1 RNA with U25G, U26A, G27A, G28U, C29G
DNA 1: CAATCTGAATTCCGGTCTCCC
DNA 2: TGGTGGCTACGACGGGATT
B11: CUUUCUA (DNA:RNA)
RNA: B3 RNA with A26U, C28U, A29C, A30U, U31A
DNA 1: CAATCTGAATTCCGGTCTCCC
DNA 2: TGGTGGCTACGACGGGATT
B12: UGUCCGG (DNA:RNA)
RNA: B3 RNA with C25U, A26G, A29C, A30G, U31G
DNA 1: CAATCTGAATTCCGGTCTCCC
DNA 2: TGGTGGCTACGACGGGATT
B13: AUUACCA (DNA:RNA)
RNA: B1 RNA with U25A, G27U, G28A, C31A
DNA 1: CAATCTGAATTCCGGTCTCCC
DNA 2: TGGTGGCTACGACGGGATT
B14: AAAUUCA (DNA:RNA)
RNA: B3 RNA with C25A, U27A, C28U, A29U, A30C, U31A
DNA 1: CAATCTGAATTCCGGTCTCCC
DNA 2: TGGTGGCTACGACGGGATT
B15: AUGUGGC (DNA:RNA)
RNA: B1 RNA with U25A, G28U, C29G, C30G
DNA 1: CAATCTGAATTCCGGTCTCCC
DNA 2: TGGTGGCTACGACGGGATT
B16: GAAAUCG (DNA:RNA)
RNA: B3 RNA with C25G, U27A, C28A, A29U, A30C, U31G
DNA 1: CAATCTGAATTCCGGTCTCCC
DNA 2: TGGTGGCTACGACGGGATT
B17: ACGAUGA (DNA:RNA)
RNA: B1 RNA with U25A, U26C, G28A, C29U, C30G, C31A
DNA 1: CAATCTGAATTCCGGTCTCCC
DNA 2: TGGTGGCTACGACGGGATT
B18: UUUCGGU (DNA:RNA)
RNA: B3 RNA with C25U, A26U, A29G, A30G
DNA 1: CAATCTGAATTCCGGTCTCCC
DNA 2: TGGTGGCTACGACGGGATT
B19: CGCGUCA (DNA:RNA)
RNA: B1 RNA with U25C, U26G, G27C, C29U, C31A
DNA 1: CAATCTGAATTCCGGTCTCCC
DNA 2: TGGTGGCTACGACGGGATT
B20: GCAGAGC (DNA:RNA)
RNA: B1 RNA with U25G, U26C, G27A, C29A, C30G
DNA 1: CAATCTGAATTCCGGTCTCCC
DNA 2: TGGTGGCTACGACGGGATT

Substitutions are numbered along the chain they refer to; changes in the protein carry UniProt numbers. Some of the results follow.

This assay addresses T1, RBFOX1 RRM. The assay can be described thus: EMSA; HiTS-Eq, 1 nM pool, 10 min; buffer printed only for the single-RNA assays: 10 mM Tris pH 7.5, 150 mM NaCl, 3.4 mM EDTA, 0.001% NP-40, 30 C. The settings on record: tags: His6 N-terminal (pET28a); label: 5' 32P. A digest of the protocol:
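Purified wild-type or mutant RbFox RRM at increasing concentrations was equilibrated with 1 nM of 5′-radiolabelled RNA carrying 7 randomized nucleotides for 10 min in 50 µL. Unbound RNA was separated by 8% native PAGE and sequenced. Relative association constants came from read-count changes of each RNA species compared with the control reaction, normalised to the cognate motif.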
(In general: A gel shift assay detects complexes by their altered migration in electrophoresis.)
Take B1: the binding signal is 0.0162 KA relative to UGCAUGU.

For B2, the binding signal was 0.00745 KA relative to UGCAUGU.

On to B3, for which the binding signal was 0.000929 KA relative to UGCAUGU.

In the case of B4, the binding signal was 0.000856 KA relative to UGCAUGU.

Regarding B5, the binding signal was 0.0179 KA relative to UGCAUGU.

Regarding B6, the binding signal is 0.00759 KA relative to UGCAUGU.

Regarding B7, the binding signal is 0.0165 KA relative to UGCAUGU.

With B8, the binding signal was 0.0197 KA relative to UGCAUGU.

Take B9: the binding signal was 0.692 KA relative to UGCAUGU.

Take B10: the binding signal was 0.0227 KA relative to UGCAUGU.

B11: the binding signal was 0.00848 KA relative to UGCAUGU.

Turning to B12, the binding signal is 0.00998 KA relative to UGCAUGU.

With B13, the binding signal is 0.00219 KA relative to UGCAUGU.

Turning to B14, the binding signal was 0.000334 KA relative to UGCAUGU.

In the case of B15, the binding signal was 0.0111 KA relative to UGCAUGU.

With B16, the binding signal is 0.00822 KA relative to UGCAUGU.

For the molecule B17, the binding signal was 0.00971 KA relative to UGCAUGU.

B18: the binding signal is 0.014 KA relative to UGCAUGU.

With B19, the binding signal is 0.00633 KA relative to UGCAUGU.

Take B20: the binding signal is 0.0144 KA relative to UGCAUGU.
